PubChem BioAssay (NCI)
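Results reflect a 48-hour exposure of cells in 96-well plates to compound at five concentrations. TGI: concentration producing complete growth inhibition.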

Tested on: NCI-H322M lung
Assay: inhibition of tumour cell growth, NCI panel, 48 h

| Compound | TGI [µM] |
| --- | --- |
| CS/C(=N\c1nccs1)NC(=O)c1cccc(Cl)c1 | > 100 |
| O=C(Nc1nc(=S)c2c(ncn2CCO)[nH]1)c1ccccc1 | > 100 |
| CSC1(SC2=NCCN2)SC2(NCCN2)S1 | 39.3 |
| c1ccc(P(CCP(CCP(c2ccccc2)c2ccccc2)c2ccccc2)CCP(c2ccccc2)c2ccccc2)cc1 (stereo not given) | > 10 |
| CN(C(=O)c1ccncc1)c1ccccc1 | > 100 |
